These results are taken from the supplement of paper PMC10681739.

The full ranking holds about 2,700 sequences; the median of “arbitrary fluorescence units” is about 4,100, and the highest 2% start at about 54,000. The list shows a part of the results.

This assay concerns the target T1, ETS1 (UniProt P14921).
T1 sequence: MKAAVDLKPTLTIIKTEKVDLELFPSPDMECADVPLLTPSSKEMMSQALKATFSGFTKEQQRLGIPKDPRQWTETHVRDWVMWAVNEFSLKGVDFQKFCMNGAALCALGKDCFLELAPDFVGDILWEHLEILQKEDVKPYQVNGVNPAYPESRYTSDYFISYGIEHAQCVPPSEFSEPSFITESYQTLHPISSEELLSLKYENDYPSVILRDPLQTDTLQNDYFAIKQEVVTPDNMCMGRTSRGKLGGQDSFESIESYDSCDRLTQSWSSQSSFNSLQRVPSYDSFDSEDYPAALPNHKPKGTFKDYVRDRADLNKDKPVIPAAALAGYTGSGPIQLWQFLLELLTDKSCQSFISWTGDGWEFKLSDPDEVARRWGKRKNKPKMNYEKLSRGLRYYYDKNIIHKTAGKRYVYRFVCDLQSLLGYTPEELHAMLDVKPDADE
The experiment in a line: ETS1 binding intensity (PBM fluorescence) (arbitrary fluorescence units); higher = stronger binding. To be noted: ETS1 concentration 10 nM. How it is done: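 gcPBM on wild-type 36-bp genomic probes with two neighbouring ETS1 sites (4-24 bp apart). Recombinant human ETS1 (10 nM) was detected with anti-ETS1 antibody fluorescence. Values are medians over 3 replicate spots. The probes sit in constant array flanks that are not printed.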
Regarding CCTGGGAAGGAGGAAATTCTGTTTCCTGTCCTTGTT, the ETS1 binding intensity was 5010. Then TGCAGGAAGCTGCAAGTCTCTCTGTAACATCCTGGG, with 587; and TCTAGAGGAAGTTGCTCTGTGGCCACCGGATGCAGA, with 3350.

In the case of GTGCCACCGGCATCCGGGCCAGGATGGCGCACTCAC, the ETS1 binding intensity was 6120. Then AAAACATGGTAGGAAATGCAGTTTCCTGTGATCACA, with 2990. The sequence GCGTTACTTCCGGCGCGCGGCGGGCGGAAGTCCGGG registered an ETS1 binding intensity of 69700. Then CTCTAAGGAAGCGGTGTGTGCACCCACATCCTGGAC, with 469; and TTACCTCAGGATGCGACGTTCCCGCTTCCGCCAGGC, with 946. Under ATGTTGTGACAGCTTCCTGCTTCCTCCTTCAGAGCT stands 8370. Then TATTCTGAACCACTTCCTGCTTCCGCAGCTTCAAAG, with 25200; and ATTTGGGAAGACTTCCTGAAGGAAGCAGTAGTTAAG, with 3790. Take CCCTGGGGATGTGCTATCACCCATGCTTCCTGCAGA: the ETS1 binding intensity was 234. Under CAGTACCAGGAAGTGCAGGCGATGAGGAAGCGCACG stands 2260. Under ACCGCGGGGAGGAAGCGCCCGCCGGAAGCAGTCGCA stands 2160; under TAGCAGTTTCCTTCCCAGAGCCTCCAGGAAGTAACA, 1890.

Sequence CCTGGGAGGAAGTGGAGAGTCAGCAGGAAGTAGAAC had an ETS1 binding intensity of 3370. Under CGGGGCGGAACCAGCCTAGCTTCTGCTTCCGGTGCG stands 6130; under GGACCGGAAAAGGCCCCACCGACGGCCCGGAAGGTG, 10800. Then CGGCCCTTCCATTTCCTGCCTTCCTGCCTGCATTTG, with 24200; and GCCTGGAGGAGGAAATGCCTCCGGGAAATGGAAATG, with 2080. Then CTAAGGAGGAAACGGCTCAGAGAGGGGAAGTGTTTG, with 509.

In turn, CTGCAGAAGAAGCGGAAGAGGAAGCTGGATAAGTCC had an ETS1 binding intensity of 765. Under AGCCGGCTTTCCGGTGCCGCCACATTCCGGGCACCA stands 12700; under TGGCTTTATGGGATGTGTTCATTTCCTGTGGCTGTG, 5590; under ACAACCTTTAAACTTCCGGTTTCCTCTGTGCGAGGT, 56700. Under AAACACACCATCCTGTTCTAGGACATCCTGTGCCTG stands 4870.

Sequence CCTGGGAGGAAGTGACCCAAGAGCAGGAAGTGCGGG registered an ETS1 binding intensity of 5080.

Turning to AATCCACAACTTCCTCCACCTACTTCCTGGCTATAT, the ETS1 binding intensity was 11300. Then CCTAACTTCCTTTCTCTGCCACTGACTTCCTGTTGT, with 16100. Then CACCATGGGAGGAAGTGGCCTGGGAAGTTGAAACAA, with 2550; and TCCCCAAACCAAGGAAGCCATTTCCTTCTCTAGGAC, with 501. Under GCCCTTCCGGTTATTTCCCTTCCTGTTTGTCTGCCT stands 48700; under TTGTTTCATTGTTTCCTTGTAGGATGTGGTTTCAAG, 196. On to CAGAACACAGGAAACGCCTCTTCTTTCCTGTGACCA, for which the ETS1 binding intensity turned out to be 9270. On to TCGGACCGGAAGGAGTTGTTGGCGCTTCCGGTGGCC, for which the ETS1 binding intensity was 15900.
